The values below come from paper PMC4336329 (PLoS ONE, 2015).

Among all 310,000 compounds or so, about 14,000 (4.5%) showed an effect of 50% or more. The effect is printed as a negative number. Some of the results follow.
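Further: peak tail current of the secondary pulse compared with the same well before compound.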

human ether-à-go-go-related gene (hERG) potassium channel, sequence (Q12809 whole entry, looked up): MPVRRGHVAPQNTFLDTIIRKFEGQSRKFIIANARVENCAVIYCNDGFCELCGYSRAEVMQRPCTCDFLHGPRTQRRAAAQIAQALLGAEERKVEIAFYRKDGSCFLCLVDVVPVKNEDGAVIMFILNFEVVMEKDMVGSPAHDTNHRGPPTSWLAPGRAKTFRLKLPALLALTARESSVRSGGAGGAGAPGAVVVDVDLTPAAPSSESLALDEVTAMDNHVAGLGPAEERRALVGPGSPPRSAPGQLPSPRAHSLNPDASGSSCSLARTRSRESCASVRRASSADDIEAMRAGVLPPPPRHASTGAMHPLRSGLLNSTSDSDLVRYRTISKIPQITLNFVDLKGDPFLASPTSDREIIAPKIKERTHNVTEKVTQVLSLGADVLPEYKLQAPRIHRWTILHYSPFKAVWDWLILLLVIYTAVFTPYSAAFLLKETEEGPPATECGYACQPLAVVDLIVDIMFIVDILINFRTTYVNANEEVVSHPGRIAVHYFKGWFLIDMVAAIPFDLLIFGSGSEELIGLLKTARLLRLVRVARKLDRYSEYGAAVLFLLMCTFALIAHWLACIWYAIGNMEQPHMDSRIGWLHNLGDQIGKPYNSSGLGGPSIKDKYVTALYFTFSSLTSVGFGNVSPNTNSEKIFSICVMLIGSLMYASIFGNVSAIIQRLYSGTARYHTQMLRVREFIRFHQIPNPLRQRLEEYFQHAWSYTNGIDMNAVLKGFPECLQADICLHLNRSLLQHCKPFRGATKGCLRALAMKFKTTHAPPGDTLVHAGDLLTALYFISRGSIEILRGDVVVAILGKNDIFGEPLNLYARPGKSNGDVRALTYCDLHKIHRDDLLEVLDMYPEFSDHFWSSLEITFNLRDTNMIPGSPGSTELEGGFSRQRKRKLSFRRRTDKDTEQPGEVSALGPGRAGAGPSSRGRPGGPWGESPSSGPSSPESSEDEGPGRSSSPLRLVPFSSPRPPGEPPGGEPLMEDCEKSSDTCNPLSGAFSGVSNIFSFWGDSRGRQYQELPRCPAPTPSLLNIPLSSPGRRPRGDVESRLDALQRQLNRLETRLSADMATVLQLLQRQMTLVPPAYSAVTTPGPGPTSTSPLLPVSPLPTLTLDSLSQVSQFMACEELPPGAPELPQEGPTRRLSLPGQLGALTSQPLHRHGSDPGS

The assay has as its target human ether-à-go-go-related gene (hERG) potassium channel (human, UniProt Q12809). Put plainly: primary screen, population patch clamp on CHO cells stably expressing hERG.
`CCCCNC(=O)c1ccc2nc(-c3ccco3)c(-c3ccco3)nc2c1`: the “hERG current change (%, negative = inhibition) at 10uM” value is given as -25.1%.

In the case of `O=C(NNC1=NCCC1)c1cccc(S(=O)(=O)N2CCOCC2)c1`, the “hERG current change (%, negative = inhibition) at 10uM” value amounted to 18.5%.

Turning to `O=C(C1CCCCC1)N1CCCC(c2nc3c(nnn3Cc3ccccc3)c(=O)[nH]2)C1` (stereo not drawn), the “hERG current change (%, negative = inhibition) at 10uM” value is on record as -8.73%.

Regarding `O=C1OCC2=C1C(c1ccccc1)CC(=O)N2c1ccccc1` (stereo not drawn), the “hERG current change (%, negative = inhibition) at 10uM” value is on record as 3.43%.

`Cc1ccc(S(=O)(=O)N2CCCCC2)cc1NS(=O)(=O)c1cccc(C(=O)O)c1`: the “hERG current change (%, negative = inhibition) at 10uM” value was found to be 22%.

As for `Nn1c(SCC(=O)NC2CCCC2)nnc1-c1ccccc1F`, the “hERG current change (%, negative = inhibition) at 10uM” value was found to be 5.05%.

In the case of `COc1cccc(CSc2nc3sc(C)c(C)c3c(=O)n2Cc2ccco2)c1`, the “hERG current change (%, negative = inhibition) at 10uM” value came to 9.54%.

On to `CCOC(=O)N1CCN(C(=O)c2cc(C)no2)CC1`, for which the “hERG current change (%, negative = inhibition) at 10uM” value was determined as 10.3%.

For the compound `O=C1NC(c2ccccc2)=NC1(NS(=O)(=O)c1ccccc1)C(F)(F)F` (stereo not drawn), the “hERG current change (%, negative = inhibition) at 10uM” value was -3.5%.

With `COCCNC(=O)CSc1nnc(CCCN2C(=O)c3cccc4cccc(c34)C2=O)n1-c1ccccc1`, the “hERG current change (%, negative = inhibition) at 10uM” value was -11%.

`Clc1cccc(Cl)c1/C=C/c1nc2ccccc2[nH]1`: the “hERG current change (%, negative = inhibition) at 10uM” value is on record as -9.4%.

Regarding `CCN(CC)S(=O)(=O)c1ccc(NC(=O)c2cc(C(=O)OC)cc([N+](=O)[O-])c2)cc1`, the “hERG current change (%, negative = inhibition) at 10uM” value is on record as 10.3%.

For the compound `CN(C(=O)Cc1ccc2c(c1)OCO2)C1CCCN(Cc2ccccc2F)C1` (stereo not drawn), the “hERG current change (%, negative = inhibition) at 10uM” value is on record as -2.2%.

Consider `Cc1oc(-c2cccc(Cl)c2)nc1CN1CCC(C(=O)NCC2CCCO2)CC1` (stereo not drawn), for which the “hERG current change (%, negative = inhibition) at 10uM” value is on record as -57.1%.

For the compound `CC(OC(=O)c1ccc(S(=O)(=O)N2CCCCC2)cc1)C(=O)Nc1ccc(C(N)=O)cc1` (stereo not drawn), the “hERG current change (%, negative = inhibition) at 10uM” value stood at 17.4%.

As for `CC(C)c1nc(SCC(=O)Nc2ccc3c(c2)OCCO3)c2c(=O)n(C)c(=O)n(C)c2n1`, the “hERG current change (%, negative = inhibition) at 10uM” value is recorded as 21.9%.

Consider `Fc1ccc(CNC(=S)NCc2cccc(Cl)c2)cc1`, for which the “hERG current change (%, negative = inhibition) at 10uM” value was -32.8%.

On to `Cc1cc(C(=O)Nc2ccc(Cl)cc2)c2ccccc2n1`, for which the “hERG current change (%, negative = inhibition) at 10uM” value is listed as 2.76%.

In the case of `Cc1nn(Cc2ccc(Cl)cc2Cl)c(Cl)c1C(=O)Nc1ccc(OC(F)F)cc1`, the “hERG current change (%, negative = inhibition) at 10uM” value is given as -5.15%.

In the case of `COc1cc(/C=N/Nc2nc(Nc3ccccc3)nc(N3CCOCC3)n2)ccc1OC(=O)c1ccco1`, the “hERG current change (%, negative = inhibition) at 10uM” value is 13.6%.

As to `CCOc1cc(N2CCOCC2)c(OCC)cc1NC(=O)c1cc(C)nc2ccccc12`, the “hERG current change (%, negative = inhibition) at 10uM” value stood at 10.6%.

With `CCOC(=O)C1CCCN(Cc2nc(Cc3cccc(F)c3)no2)C1` (stereo not drawn), the “hERG current change (%, negative = inhibition) at 10uM” value was -6.6%.

In the case of `CC(C)(C)OC(=O)N/N=C\C=C\c1ccc2c(c1)OCO2`, the “hERG current change (%, negative = inhibition) at 10uM” value turned out to be 7.04%.

As to `CCOC(=O)N1CCN(C(=O)c2ccc(N(C)S(C)(=O)=O)cc2)CC1`, the “hERG current change (%, negative = inhibition) at 10uM” value turned out to be 11.8%.

Take `COC(=O)C1=C(C)N(CCCC(=O)O)C(=O)NC1c1ccc2c(c1)OCO2` (stereo not drawn): the “hERG current change (%, negative = inhibition) at 10uM” value is recorded as 3.66%.

As for `Cc1ccccc1C(=O)NC(=S)Nc1ccccc1[N+](=O)[O-]`, the “hERG current change (%, negative = inhibition) at 10uM” value was 18.1%.

For `COCCCn1c(=O)c2sccc2n(Cc2ccc(C)cc2)c1=O`, the “hERG current change (%, negative = inhibition) at 10uM” value was 14.1%.

Take `Cc1ccc(S(=O)(=O)N2CCc3cc4c(cc3C2C)OCCCO4)cc1` (stereo not drawn): the “hERG current change (%, negative = inhibition) at 10uM” value is recorded as -0.487%.

For the compound `Cc1cc[n+](-c2[nH]c(=O)sc2/C=N/N=C(\[O-])c2ccncc2)cc1`, the “hERG current change (%, negative = inhibition) at 10uM” value amounted to 5.61%.

Take `CCOc1ccc(-c2nc(N)ncc2Oc2ccc(OC)cc2)c(O)c1`: the “hERG current change (%, negative = inhibition) at 10uM” value was -2.1%.

With `Cc1ccc(Cn2c(CCC(=O)O)nc3ncccc3c2=O)cc1`, the “hERG current change (%, negative = inhibition) at 10uM” value is recorded as 13.4%.

For the compound `CC(=O)Nc1ccccc1OCC(=O)NC1CCCCC1C` (stereo not drawn), the “hERG current change (%, negative = inhibition) at 10uM” value is recorded as 8.59%.

Take `O=C(COC(=O)C12CC3CC(CC(C3)C1)C2)Nc1ccccc1F`: the “hERG current change (%, negative = inhibition) at 10uM” value is reported as 20.3%.

Turning to `CCC(CO)NCc1ccc(OCC(O)c2ccccc2)c(OC)c1.Cl` (stereo not drawn), the “hERG current change (%, negative = inhibition) at 10uM” value is reported as 12.4%.

In the case of `CC(NC(=S)Nc1ccccc1)C1COc2ccccc2O1` (stereo not drawn), the “hERG current change (%, negative = inhibition) at 10uM” value is recorded as 1.53%.

Consider `O=C(CSc1ncccn1)N/N=C/c1ccc2c(c1)OCO2`, for which the “hERG current change (%, negative = inhibition) at 10uM” value is -5.21%.

`CCc1ccc(N(CC(=O)NC2CCCC2)C(=O)CCC(=O)Nc2cc(C)on2)cc1`: the “hERG current change (%, negative = inhibition) at 10uM” value is -24.8%.

Regarding `Cc1ccc(/C=C2\SC(=S)N(CCC(=O)Nc3ccc(O)cc3)C2=O)cc1`, the “hERG current change (%, negative = inhibition) at 10uM” value came to 1.58%.

As to `COc1ccc(OC)c(S(=O)(=O)N2CCCC(C(=O)N3CCOCC3)C2)c1` (stereo not drawn), the “hERG current change (%, negative = inhibition) at 10uM” value was determined as 20.5%.

For `CCc1sc(C(=O)Nc2ccc(NC(C)=O)cc2)cc1C`, the “hERG current change (%, negative = inhibition) at 10uM” value was determined as 14%.

Take `N#Cc1c(-n2ccnc2)cccc1-n1ccnc1`: the “hERG current change (%, negative = inhibition) at 10uM” value is -15.6%.

As for `Cc1ccnc(N2CCC(C(=O)Nc3ccc4c(c3)OCO4)CC2)n1`, the “hERG current change (%, negative = inhibition) at 10uM” value worked out at 15.3%.

With `CC1(C)CC(=O)C2=C(C1)OC(N)=C(C#N)C2C1CC=CCC1` (stereo not drawn), the “hERG current change (%, negative = inhibition) at 10uM” value was 3.77%.

For the compound `Cn1c(SCC(=O)NCc2ccco2)nc2ccccc2c1=O`, the “hERG current change (%, negative = inhibition) at 10uM” value was -23.6%.

Consider `CC(C)c1ccccc1-n1c(SCC(=O)c2ccc3c(c2)NC(=O)CO3)nc2ccccc2c1=O`, for which the “hERG current change (%, negative = inhibition) at 10uM” value is 11.5%.
